Experimental data: PubChem BioAssay AID504832 (National Center for Advancing Translational Sciences (NCATS), 2011)
Among all 310,000 compounds or so, about 18,000 (5.8%) were called active. Inconclusive results, whose numbers are uncertain, are shown with a selection of clear calls. Calls come from the whole dose curve; as a rule, active = well fitted inhibition curve with a large enough effect; inconclusive = small, poorly fitted or top-dose-only effect, or another doubt; inactive = no such curve, though single readings can be large or run the other way. Potencies of inconclusive entries are left out as doubtful fits.

Assay: Primary qHTS for delayed death inhibitors of the malarial parasite plastid, 48 hour incubation
Conditions: P. falciparum luciferase growth in erythrocytes; series mostly up to 28.7 µM; activity change, negative = inhibition: at the top concentration
Summary of the method: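 Luciferase-expressing P. falciparum in infected erythrocytes (2% hematocrit, 0.1% parasitemia final) in RPMI 1640/0.5% Albumax were exposed to compound for 48 hours at 37 C, 5% CO2; growth read as luminescence.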
% is set by controls: 0 for no effect and ±100 for the full control effect; potency is the fitted concentration of half-maximal effect; tags give direction and shape of the fitted curve.

Row | SMILES | Potency | activity change, negative = inhibition
1 | CNC(=O)Oc1ccccc1C(=O)Nc1ccccc1 | inconclusive [inhibitor, single point] | –
2 | CSCCC(NC(=O)c1ccccc1Cl)C(=O)NCC(c1cccs1)N(C)C (centres undefined) | inconclusive [inhibitor, single point] | –
3 | COc1ccc(S(=O)(=O)N2CCCCCC2)cc1C(=O)N(C)Cc1ccco1 | – | inactive: -12%
4 | CC(Oc1ccc(Br)cc1)c1nc2c3ccccc3nc(=S)n2[nH]1 (centres undefined) | active: 1.47 µM | –
5 | CC(C)C[C@@]12C(=O)N(c3cccc(Cl)c3)C(=O)N1[C@H](c1ccc(F)cc1)[C@@H]1C(=O)N(C3CCCCC3)C(=O)[C@@H]12 | active: 4.15 µM | –
6 | Cc1cccc2c(=O)c(Br)c(C)n(Cc3ccccc3)c12 | inconclusive [inhibitor, partial curve, poor fit] | –
7 | COC(=O)c1ccc(CN2CCCC(CCC(=O)NCc3ccc(C)o3)C2)cc1 (centres undefined) | inconclusive [inhibitor, partial curve, poor fit] | –
8 | COC(=O)c1c(N2C(=O)CC(Sc3ccccc3C(=O)O)C2=O)sc(C)c1C (centres undefined) | inconclusive [inhibitor, single point] | –
9 | O=C(OCC#CCSc1nnc(-c2cccc3ccccc23)o1)c1ccc2ccccc2c1 | inconclusive [inhibitor, single point] | –
10 | Nc1nnc(SCC(=O)Nc2ccc3c(c2)OCCO3)s1 | – | inactive: 38%
11 | Cc1ccc(N2CCN(C3=NC(=O)C(Cc4ccccc4)S3)CC2)cc1 (centres undefined) | inconclusive [inhibitor, partial curve, poor fit] | –
12 | CC(=O)Nc1ccc(S(=O)(=O)N(Cc2cccnc2)Cc2cc3ccccc3[nH]c2=O)cc1 | inconclusive [inhibitor, single point] | –
13 | Cc1ccc(CN=C(N)Nc2nc(C)cc(C)n2)cc1 | inconclusive [inhibitor, full curve] | –
14 | Cc1ccc(C2=CC(=O)C[C@H](c3ccc4c(c3)OCO4)C2)cc1 | inconclusive [inhibitor, single point] | –
15 | CCN(CC)S(=O)(=O)N1CCC(C(=O)NCc2ccc3c(c2)OCO3)CC1 | – | inactive: -10.2%
16 | COc1ccc(-n2nc(C(=O)NCC(=O)Nc3cc(C)ccc3OC)c3ccccc3c2=O)c(OC)c1 | active: 11.7 µM | –
17 | CCOC(=O)Cc1csc(NC(=O)c2ccncc2)n1 | – | inactive: 31.2%
18 | O=C(CCN1CCN(c2ccccc2F)CC1)Nc1ccccc1F | – | inactive: 27.2%
19 | Cc1ccc(NC(=O)c2ccc3nc[nH]c3c2)c(O)c1 | – | inactive: 282%
20 | COc1ccc(C(=O)N2CCCC(c3nc(-c4cc(OC)c(OC)c(OC)c4)no3)C2)cc1 (centres undefined) | inconclusive [inhibitor, partial curve] | –
21 | Cc1ccc(NC(=O)N/C=C/c2ccc(Cl)cc2)cc1 | – | inactive: 2.43%
22 | Cc1ccc(-n2nnnc2SCC(=O)Nc2cc(C)on2)c(C)c1 | – | inactive: -0.605%
23 | O=C(CCl)Nc1cccn2ncnc12 | active: 10.4 µM | –
24 | Cc1ccc(S(=O)(=O)N(C)C)cc1NC(=O)CSc1nnc(C2CC2)n1C1CC1 | inconclusive [inhibitor, partial curve, poor fit] | –
25 | Cc1ccc(C(=O)N/N=C\c2cccn2C)cn1 | inconclusive [inhibitor, full curve, poor fit] | –

Row | SMILES | Potency | activity change, negative = inhibition
26 | Cc1oc2c(C)c(O)ccc2c(=O)c1-c1ccc2ccccc2n1 | inconclusive [inhibitor, partial curve, poor fit] | –
27 | CC1(C)Cc2cccc(OCC(=O)OCC(=O)Nc3ccccc3)c2O1 | – | inactive: 2.57%
28 | CCn1c2ccccc2c2cc(NC(=O)c3cc(OC)c(OC)c(OC)c3)ccc21 | inconclusive [inhibitor, partial curve, poor fit] | –
29 | COc1ccc(CCNCc2ccc(C)s2)cc1OC | inconclusive [inhibitor, partial curve, poor fit] | –
30 | CCN(CC)CCNCc1ccc(Br)cc1OCC(=O)NCc1ccccc1 | inconclusive [inhibitor, partial curve] | –
31 | O=C(OCN1C(=O)c2ccccc2C1=O)C1CCCCC1 | – | inactive: 43.4%
32 | COc1ccc(CN(C(=O)c2ccco2)c2ccc(C)cc2)cc1OC | inconclusive [inhibitor, single point] | –
33 | CCOc1ccccc1OCCCC(=O)N(CC)CC(=O)Nc1c(F)cccc1F | – | inactive: -27.7%
34 | Cc1cc(C(=O)Cn2c(CO)nc3ccccc32)c(C)n1C | inconclusive [inhibitor, full curve, poor fit] | –
35 | COc1ccccc1-n1c(=O)c(C#N)c(-c2ccc([N+](=O)[O-])cc2)c2cc(C(=O)c3cc(F)ccc3O)cnc21 | inconclusive [inhibitor, full curve] | –
36 | C=CCSc1nc2c(c(=O)[nH]1)C(c1ccccc1)C(C#N)=C(N)O2 (centres undefined) | – | inactive: -18%
37 | O=C(OCc1cccc([N+](=O)[O-])c1)c1ccc[nH]c1=O | – | inactive: 2.86%
38 | Cc1ccc(SCc2cn3c(C)csc3n2)cc1 | – | inactive: 183%
39 | Cc1ccccc1Nc1nc(N)nc(CSc2n[nH]c(N)n2)n1 | – | inactive: 47.1%
40 | Cc1ccc(CNC(=O)CN(C(=O)C2(C)CC(=O)N=C3C=CC=CN32)c2ccccc2F)cc1 (centres undefined) | – | inactive: 18.3%
41 | Clc1ccc2nc(-c3ccc(Br)s3)cn2c1 | inconclusive [inhibitor, single point] | –
42 | C=CCc1c(C)nc2cc(-c3ccc(C)cc3)[nH]n2c1=O | – | inactive: 66.8%
43 | CCCCn1c(N)c(-c2nc3ccccc3o2)c2c([N+](=O)[O-])nn(C)c(=O)c21 | – | inactive: 15.3%
44 | O=C(CSC1=NCCN1)NC(c1ccccc1)c1ccccc1 | inconclusive [inhibitor, single point] | –
45 | O=C1CCSc2ccc(Cl)cc2N1Cc1ccccc1 | – | inactive: 8.41%
46 | O=C(Cc1c[nH]c2ccccc12)NCc1ccc(Cl)cc1Cl | – | inactive: 22.4%
47 | CC(NC(=O)C1CCN(S(=O)(=O)N2CCCCCC2)CC1)c1ccccc1 (centres undefined) | – | inactive: -29.7%
48 | Oc1ccc(C[C@@H]2CNCCN2CC2CCCCC2)cc1 | inconclusive [inhibitor, partial curve] | –
49 | Cc1ccc(C2N(c3cccc(Cl)c3)C(=O)N3CCCN23)cc1 (centres undefined) | inconclusive [inhibitor, single point] | –
